# Laboratory results: PubChem BioAssay (NCATS)
# Where “and” joins values, the source holds several entries; their conditions need not be identical. Identical values can stand only once. Inconclusive means that the source gave no clear call. Such entries were picked first, then a sample of the others. For part of these data: Where the call is inconclusive, the potency comes from a doubtful curve fit. Calls of active or inactive are those of the source. Calls follow the shape of the dose curve; as a rule, active = well fitted curve in the direction sought with a large enough effect; inconclusive = small, poorly fitted or top-dose-only effect, or another doubt; inactive = no such curve, though single readings can be large; an effect the other way counts as inactive or inconclusive.
# Assays:
# [1] = NS1 protein of Zika virus - qHTS assay to identify small molecule inhibitors in human HEK 293 cells (AID 1347053); also: nearly all actives have a fitted effect of over 55% in size
# Outline: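 HEK 293 cells pretreated with compound for 1 h, then infected with ZIKV MR766 (MOI 0.5) for 24 h at 37 C. NS1 detected by TR-FRET with two anti-NS1 antibodies; normalized to uninfected (0%) and infected (100%) wells.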
# [2] = qHTS of pediatric cancer cell lines to identify multiple opportunities for drug repurposing: Primary screen for DAOY cells (AID 1347090); conditions: DAOY medulloblastoma viability, CellTiter-Glo luminescence, 48 h; activity change, negative = cytotoxic: at 46 µM (top of the series); also: nearly all actives have a fitted effect of over 55% in size;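 as to activity change, negative = cytotoxic: plate controls were DMSO for no effect and bortezomib for full effect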
# Outline: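 Cell viability, CellTiter-Glo luminescence; 500-1,000 cells/well, 8- or 11-point titration, 48 h compound exposure at 37 degrees C, 5% CO2. Controls: DMSO neutral, bortezomib 2.3 µM final as positive.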
# [3] = qHTS of pediatric cancer cell lines to identify multiple opportunities for drug repurposing: Primary screen for BT-37 cells (AID 1347094)
# Outline: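 Cells seeded at 500-1,000 cells/well in growth media, rested 5 hours at 37 degrees C, 5% CO2, then dosed; MIPE compounds at 11-point (from 0.78 nM) and NPC at 8-point (from 0.59 nM) final concentrations. Viability by CellTiter-Glo luminescence after 48 hours.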
# [4] = qHTS of pediatric cancer cell lines to identify multiple opportunities for drug repurposing: Primary screen for LAN-5 cells (AID 1347100)
# Outline: (§1)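 Cells (500-1,000/well) rested 5 h, then received compounds for 48 h; metabolically active cells were measured by CellTiter-Glo luminescence. Final concentrations spanned up to 46 µM (MIPE, 11-point) or 0.59 nM-46 µM (NPC, 8-point) in primary screens, 11-point in follow-ups.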
# [5] = Quantitative High-Throughput drug screen in 47 multiple myeloma cell lines against the NCATS MIPE library collection: KHM11_PLB cell viability assay (AID 1918962); conditions: KHM11 myeloma cell viability, CellTiter-Glo ATP luminescence, 48 h; viability, % of DMSO control: at 45.8 µM (top of the series); also: nearly all actives have a fitted effect of over 35% in size
# Outline: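 Primary qHTS used for cherry-picking: cells at 500/well, library compounds for 48 h (37C, 5% CO2), luminescent ATP assay.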
# [6] = Quantitative High-Throughput drug screen in 47 multiple myeloma cell lines against the NCATS MIPE library collection: KMS34_JCRB cell viability assay (AID 1918985); also: nearly all actives have a fitted effect of over 40% in size
# Outline: (§2)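 Plated at 500 cells per well, myeloma lines received MIPE 4.0 compounds by pin tool. Following 48 h culture at 37 °C, CellTiter-Glo luminescence gave viability relative to DMSO and media-only controls.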
# [7] = Quantitative High-Throughput drug screen in 47 multiple myeloma cell lines against the NCATS MIPE library collection: SKMM1_PLB cell viability assay (AID 1919863); conditions: SKMM1 myeloma viability, CellTiter-Glo ATP, 48 h; viability: stronger effect = lower value; also: nearly all actives have a fitted effect of over 35% in size
# Outline: as §2
# [8] = Quantitative High-Throughput drug screen in 47 multiple myeloma cell lines against the NCATS MIPE library collection: UTMC2_PLB cell viability assay (AID 1919868); conditions: CellTiter-Glo ATP luminescence, 48 h; viability (% of DMSO control): at 45.8 µM (top of the series); also: nearly all actives have a fitted effect of over 55% in size
# Outline: as §2
# [9] = test system: KB-3-1; experiment: Cytotoxic Profiling of Annotated Libraries Using Quantitative High-Throughput Screening (AID 1296008); conditions: Five cell lines viability, CellTiter-Glo ATP luminescence, 48-72 h; max response: stronger effect = lower value; also: nearly all actives have a fitted effect of over 60% in size; as to max response: % is scaled to controls: 0 for no effect and ±100 for the full control effect
# Outline: (§3)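 Cytotoxicity was measured as CellTiter-Glo ATP luminescence, read after 10 min at room temperature. Compound treatment of the cells lasted 48 or 72 hr at 37 degrees Celsius in a qHTS format.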
# [10] = test system: NIH3T3; experiment: as above; conditions: Five cell lines viability, CellTiter-Glo ATP luminescence, 48-72 h; max response: stronger effect = lower value
# Outline: as §3
# [11] = test system: MCC-13; experiment: qHTS assay to identify novel small-molecules to repurpose for Merkel cell carcinoma treatment (AID 1296009); conditions: MCC and control cell lines, CellTiter-Glo viability, 72 h; series mostly up to 46 µM; also: nearly all actives have a fitted effect of over 60% in size; as to activity change, negative = cytotoxicity: % is scaled to controls: 0 for no effect and ±100 for the full control effect
# Outline: (§4)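 After compound transfer in DMSO, plates were kept 72 hr at 37 degree celsius. Luminescent ATP signal from CellTiter-Glo served as viability measure, normalized against DMSO and no-cell controls.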
# [12] = test system: MKL-1; experiment: as above; conditions: MCC and control cell lines, CellTiter-Glo viability, 72 h; activity change, negative = cytotoxicity: at 46 µM (top of the series)
# Outline: as §4
# [13] = test system: MKL-2; experiment: as above; conditions: MCC and control cell lines, CellTiter-Glo viability, 72 h; activity change, negative = cytotoxicity: at 46 µM (top of the series)
# Outline: as §4
# [14] = test system: UISO; experiment: as above; conditions: MCC and control cell lines, CellTiter-Glo viability, 72 h; activity change, negative = cytotoxicity: at 46 µM (top of the series)
# Outline: as §4
# [15] = test system: WaGa; experiment: as above; conditions: MCC and control cell lines, CellTiter-Glo viability, 72 h; series mostly up to 46 µM
# Outline: as §4
# [16] = test system: SKOV3; experiment: Primary qHTS to identify gynecologic anti-cancer compounds using libraries of approved drugs and bioactive compounds (AID 1345084); conditions: Gynecologic cancer cell panel viability, ATPlite luminescence, 48 h; series mostly up to 57.5 µM; also: nearly all actives have a fitted effect of over 55% in size; as to activity change, negative = cytotoxicity: % is scaled to controls: 0 for no effect and ±100 for the full control effect
# Outline: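 ATP-based viability (ATPlite), 1,000 cells/well, 16 h pre-incubation, 48 h compound at 37 C, 5% CO2, 15 min RT before read.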
# [17] = Quantitative High-Throughput drug screen in 47 multiple myeloma cell lines against the NCATS MIPE library collection: Karpas417_ECACC cell viability assay (AID 1918961); conditions: Karpas417 myeloma viability, CellTiter-Glo ATP luminescence, 48 h; viability (% of DMSO): at 45.8 µM (top of the series)
# Outline: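 We plated 500 myeloma cells per well, pinned in MIPE 4.0 compounds, and incubated for 48 hours at 37C. ATP was then quantified with CellTiter-Glo, with DMSO and media-only wells defining 100% and 0%.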
# [18] = Quantitative High-Throughput drug screen in 47 multiple myeloma cell lines against the NCATS MIPE library collection: OCIMY1_PLB cell viability assay (AID 1918979); also: nearly all actives have a fitted effect of over 35% in size
# Outline: as §2
# [19] = qHTS of pediatric cancer cell lines to identify multiple opportunities for drug repurposing: Primary screen for U-2 OS cells (AID 1347096); also: nearly all actives have a fitted effect of over 50% in size
# Outline: as §1
# [20] = test system: HaCat; experiment: Cytotoxic Profiling of Annotated Libraries Using Quantitative High-Throughput Screening (AID 1296008); conditions: Five cell lines viability, CellTiter-Glo ATP luminescence, 48-72 h; max response: stronger effect = lower value; also: nearly all actives have a fitted effect of over 60% in size; as to max response: % is scaled to controls: 0 for no effect and ±100 for the full control effect
# Outline: as §3
# Potency is read from the fitted curve at half-maximal effect; tags tell the direction and shape of the fitted curve.
compound,measurement,setting,value
COc1cc2nccc(Oc3ccc(NC(=O)NC4CC4)c(Cl)c3)c2cc1C(N)=O,Potency,[1],"inconclusive: 37.2 µM [inhibitor, single point]"
same,Potency,[2],active: 4.69 µM
same,Potency,[3],active: 1.37 µM
same,Potency,[4],active: 0.372 µM
same,Potency,[5],"inconclusive: 37.2 µM [cytotoxic, single point]"
same,Potency,[6],active: 18.7 µM
same,Potency,[7],active: 13.2 µM
same,Potency,[8],active: 2.64 µM
same,Potency,[9],"inconclusive: 23.1 µM [inhibitor, single point]"
same,Potency,[10],active: 14.8 µM and active: 4.11 µM
same,Potency,[11],"inconclusive: 29.6 µM [inhibitor, single point]"
same,Potency,[12],active: 2.64 µM
same,Potency,[13],active: 9.35 µM
same,Potency,[14],active: 18.7 µM
same,Potency,[15],active: 1.48 µM
same,Potency,[16],inactive
O=C(O)c1ccc2cc(-c3ccc(O)c(C45CC6CC(CC(C6)C4)C5)c3)ccc2c1,Potency,[1],active: 0.59 µM
same,Potency,[2],active: 0.469 µM
same,Potency,[17],"inconclusive: 2.35 µM [cytotoxic, partial curve, poor fit]"
same,Potency,[5],"inconclusive: 1.18 µM [cytotoxic, full curve, poor fit]"
same,Potency,[18],active: 16.6 µM
same,Potency,[11],active: 2.64 µM
same,Potency,[13],"inconclusive: 0.264 µM [inhibitor, full curve]"
same,Potency,[15],active: 2.35 µM
CC[C@H](Nc1ncnc2nc[nH]c12)c1nc2cccc(F)c2c(=O)n1-c1ccccc1,Potency,[2],"inconclusive: 1.87 µM [cytotoxic, full curve, poor fit]"
same,Potency,[3],"inconclusive: 21.7 µM [cytotoxic, partial curve]"
same,Potency,[19],"inconclusive: 11.8 µM [cytotoxic, partial curve, poor fit]"
same,Potency,[4],active: 20.9 µM
same,Potency,[17],inactive
same,Potency,[18],active: 16.6 µM
same,Potency,[6],"inconclusive: 18.7 µM [cytotoxic, partial curve]"
same,Potency,[20],"active: 13.2 µM and inconclusive: 1.55 µM [inhibitor, single point]"
same,Potency,[9],"inconclusive: 33.2 µM [inhibitor, single point]"
same,Potency,[10],"inconclusive: 14.8 µM [inhibitor, partial curve]"
same,Potency,[12],inactive
same,Potency,[13],"inconclusive: 20.9 µM [inhibitor, single point]"
same,Potency,[15],"inconclusive: 6.62 µM [inhibitor, partial curve]"
same,Potency,[16],"inconclusive: 0.891 µM [cytotoxic, single point]"
CN1CCC(CNc2ccc3ncc(-c4cccc(OC(F)(F)F)c4)n3n2)CC1,Potency,[1],active: 16.6 µM
same,Potency,[2],"inconclusive: 23.5 µM [cytotoxic, single point]"
same,Potency,[19],"inconclusive: 23.5 µM [cytotoxic, single point]"
same,Potency,[4],active: 14.8 µM
same,Potency,[5],active: 6.62 µM
same,Potency,[6],active: 20.9 µM
same,Potency,[7],active: 23.5 µM
same,Potency,[9],"active: 20.9 µM and inconclusive: 29.1 µM [inhibitor, single point]"
same,Potency,[10],"inconclusive: 29.6 µM [inhibitor, single point] and inconclusive: 16.4 µM [inhibitor, single point]"
same,Potency,[12],"inconclusive: 20.9 µM [inhibitor, single point]"
same,Potency,[14],"inconclusive: 16.6 µM [inhibitor, partial curve]"
same,Potency,[16],"inconclusive: 22.4 µM [cytotoxic, partial curve, poor fit]"
CCC(=C(c1ccccc1)c1ccc(OCCN(C)C)cc1)c1ccccc1,Potency,[1],"inconclusive: 37.2 µM [inhibitor, single point]"
same,Potency,[2],inactive
same,Potency,[3],"inconclusive: 27.3 µM [cytotoxic, partial curve]"
same,Potency,[4],"inconclusive: 37.2 µM [cytotoxic, single point]"
same,Potency,[17],active: 14.8 µM
same,Potency,[5],"inconclusive: 33.2 µM [cytotoxic, single point]"
same,Potency,[18],inactive
same,Potency,[6],inactive
same,Potency,[7],active: 20.9 µM
same,Potency,[8],"inconclusive: 20.9 µM [cytotoxic, partial curve, poor fit]"
same,max response,[10],inactive: 1.38%
same,Potency,[12],"inconclusive: 20.9 µM [inhibitor, single point]"
same,Potency,[15],"inconclusive: 33.2 µM [inhibitor, partial curve, poor fit]"
